# Test results as given in PubChem BioAssay (NCATS).
# “And” between values parts separate entries of the source, which are not always exact repeats. Identical values can stand only once. The shares of active, inactive and inconclusive entries below differ from those in the screen. A call without a number means that no potency is given here. Potencies of inconclusive entries are doubtful fits and often do not repeat. The source made the active and inactive calls. Calls follow the shape of the dose curve; as a rule, active = well fitted cell-killing curve with a large enough effect; inconclusive = small, poorly fitted or top-dose-only effect; inactive = no such curve, though single readings can be large or run the other way.
# Assay: qHTS of pediatric cancer cell lines to identify multiple opportunities for drug repurposing: Primary screen for SK-N-MC cells (AID 1347093)
# Conditions: SK-N-MC viability, CellTiter-Glo luminescence, 48 h; series mostly up to 46 µM
# Procedure, shortened: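 Metabolically active cells were quantified by ATP-dependent luminescence (CellTiter-Glo, 15 min at room temperature) following 48 h treatment. Cells had been plated at 500-1,000 per well and settled for 5 h beforehand.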
# Potency is read from the fitted curve at half-maximal effect; tags tell the direction and shape of the fitted curve.
row,Compound,Potency
1,CC1(C)O[C@@H]2[C@@H](CO[C@@]3(COS(N)(=O)=O)OC(C)(C)O[C@@H]23)O1,inactive
2,OC(Cn1cncn1)(Cn1cncn1)c1ccc(F)cc1F,inactive
3,CC(C)(CO)[C@@H](O)C(=O)NCCCO,inactive
4,C[C@H](CCC(=O)O)[C@H]1CCC2C3C[C@H](O)[C@@H]4C[C@H](O)CC[C@]4(C)C3CC[C@@]21C (some centres not stated),inactive
5,COC(=O)[C@@H]1[C@H]2C[C@H]3c4[nH]c5ccccc5c4CCN3C[C@@H]2CC[C@@H]1O,inactive
6,CC1=C(/C=C/C(C)=C/C=C/C(C)=C/C(=O)O)C(C)(C)CCC1,"inconclusive: 944 nM [cytotoxic, partial curve]"
7,Clc1cccc(-c2nnnn2Cc2cccnc2)c1Cl,"inconclusive: 11800 nM [cytotoxic, partial curve, poor fit]"
8,O=S1(=O)OC(c2ccc(O)cc2)(c2ccc(O)cc2)c2ccccc21,inactive
9,CCn1cc(C(=O)O)c(=O)c2cc(F)c(N3CCN(C)CC3)cc21,inactive
10,CC(=O)Oc1ccc(C2(c3ccc(OC(C)=O)cc3)C(=O)Nc3ccccc32)cc1,"inconclusive: 2.7 nM [cytotoxic, full curve, poor fit]"
11,COc1cccc2c1C(=O)c1c(O)c3c(c(O)c1C2=O)C[C@@](O)(C(=O)CO)C[C@H]3O[C@H]1C[C@H](N)[C@H](O)[C@H](C)O1,active: 105 nM
12,NC[C@H](O)c1ccc(O)c(O)c1,"inconclusive: 8.41 µM [cytotoxic, partial curve, poor fit] and inconclusive: 29.6 µM [cytotoxic, single point]"
